The whole screen tested about 420,000 compounds, of which about 50,000 (12%) were called active. Inconclusive results, whose numbers are uncertain, are shown with a selection of clear calls. Calls come from the whole dose curve; as a rule, active = well fitted inhibition curve with a large enough effect; inconclusive = small, poorly fitted or top-dose-only effect; inactive = flat fitted curve, though single readings scatter. No potency is given beside an inconclusive call; the fits are too rough.
Assay: qHTS for Inhibitors of human tyrosyl-DNA phosphodiesterase 1 (TDP1): qHTS in cells in presence of CPT; note: nearly all actives have a fitted effect of over 55% in size
Conditions: chicken DT40 Tdp1-/-;hTDP1 cells + 20 nM CPT, ATP luminescence, 48 h; activity change, negative = growth inhibition: at 46.2 µM (top of the series) unless noted
In short: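 Chicken DT40 Tdp1-/- cells stably complemented with human TDP1 were seeded at 400 cells/well in medium containing 20 nM camptothecin, exposed to pin-transferred compounds, and grown at 37 °C for at least 48 hr. Viability was read as ATP luminescence.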
% is set by controls: 0 for no effect and ±100 for the full control effect; potency is the fitted concentration of half-maximal effect; tags give direction and shape of the fitted curve.

Row | Compound | Potency | activity change, negative = growth inhibition
1 | COC(=O)c1cn(-c2nc3ccccc3s2)nn1 | inconclusive [inhibitor, single point] | –
2 | CCOC(=O)c1c(NC(=O)COc2ccc(OC)cc2)sc(C(=O)N(CC)CC)c1C | inconclusive [inhibitor, single point] | –
3 | Cn1c(=O)c(Nc2ccc(Cl)cc2)c2c3c(cccc31)C(=O)c1ccccc1-2 | inconclusive [inhibitor, single point] | –
4 | COc1ccc(COC(=O)C2=C(C)NC(=O)NC2c2ccccc2F)cc1 (stereo not drawn) | inconclusive [inhibitor, single point] | –
5 | Cc1ccccc1OCC(=O)N/N=C/c1ccncc1 | inactive | –
6 | Cc1csc(=O)n1CC(=O)OCc1nnc(-c2ccccc2)o1 | inactive | –
7 | Cc1ccc(NC(=O)COC(=O)CC2SC(N3CCCC3)=NC2=O)cc1 (stereo not drawn) | inactive | –
8 | CC(C)CN1C(=O)C(=O)N(CC(=O)Nc2cccc(Cl)c2Cl)C1=O | inactive | –
9 | Cc1ccc(S(=O)(=O)N2CCCN(C(C)c3nc4ccccc4c(=O)[nH]3)CC2)cc1 (stereo not drawn) | inconclusive [inhibitor, single point] | –
10 | COc1ccc(NS(=O)(=O)c2cc(NC(=O)c3ccc(C)o3)ccc2N2CCCCC2)cc1 | inconclusive [inhibitor, single point] | –
11 | O=C(Nc1ccc(O)c(C(=O)O)c1)c1cccc(NC(=O)c2ccco2)c1 | inactive | –
12 | CCOC(=O)c1cccc(NC(=O)Cn2cnc3nc4c(cc3c2=O)CCCC4)c1 | inconclusive [inhibitor, single point] | –
13 | O=C(Nc1ccccc1)Nc1ccc(NC(=O)c2ccccc2O)cc1 | inactive | –
14 | Cc1ccc(O)c(NC(=O)c2cc([N+](=O)[O-])ccc2Cl)c1 | inconclusive [inhibitor, single point] | –
15 | COc1ccc(CN2CCN(Cc3ccc(OC)c(OC)c3OC)CC2)cc1 | inactive | –
16 | Cn1c(CCCOc2ccc(Cl)cc2Cl)nnc1SCC(=O)Nc1cccc(F)c1 | inconclusive [inhibitor, single point] | –
17 | Nc1c(Cl)cc(-c2[nH]c3cc(C(=O)NCCO)ccc3c(=O)c2O)cc1Cl | inactive | –
18 | CN(C)c1cccc(C(=O)NCCCSc2ccccc2)c1 | inconclusive [inhibitor, single point] | –
19 | CC(=O)NN1C(=O)/C(=C/c2ccc(Br)o2)SC1=S | inconclusive [inhibitor, single point] | –
20 | O=[N+]([O-])c1cccc(/C=N/n2c(C3CCCCC3)n[nH]c2=S)c1 | inconclusive [inhibitor, single point] | –
21 | O=C(Nc1nc(-c2cc(F)ccc2F)cs1)C1=NN(c2ccccc2)C(=O)CC1 | inconclusive [inhibitor, partial curve, poor fit] | –
22 | N#Cc1ccc(NC(=O)CNc2cc(S(=O)(=O)N3CCOCC3)ccc2NCC2CCCO2)cc1 (stereo not drawn) | – | inconclusive: -33.1% [inhibitor]
23 | CCOC(=O)[C@]12CCC=C1N(Cc1cccc3ccccc13)C(=O)[C@H](CC(=O)NCc1cccc(C(F)(F)F)c1)C2 | inconclusive [inhibitor, single point] | –
24 | COc1ccc(-c2nc(CSCC(=O)N3CCN(C(=O)c4ccco4)CC3)c(C)o2)cc1OC | inconclusive [inhibitor, partial curve, poor fit] | –
25 | CCOC(=O)Cc1csc(NC(=O)/C=C/c2ccc(Br)o2)n1 | inconclusive [inhibitor, single point] | –

Row | Compound | Potency | activity change, negative = growth inhibition
26 | O=C(CN1C(=O)NC2(CCCC2)C1=O)NCc1ccc(Cl)cc1 | inactive | –
27 | Cc1ccc(NC(=S)N/N=C/c2ccc(OCCC(C)C)cc2)c(C)c1 | – | inconclusive: -37.1% [inhibitor]
28 | CCCCN(CCCC)C(=O)c1cc2ccccc2c(=O)o1 | inconclusive [inhibitor, single point] | –
29 | COc1ccc(-c2ccc(N)[n+](CCCC(=O)O)n2)cc1 | inactive | –
30 | Cc1ccc(C(c2c(C)n(C)n(-c3ccccc3)c2=O)c2c(C)n(C)n(-c3ccccc3)c2=O)s1 | inactive | –
31 | COCC(=O)Nc1ccc([N+](=O)[O-])cc1C | inactive | –
32 | O=C(Nc1ncc(Cc2cccc(Cl)c2)s1)c1ccc([N+](=O)[O-])cc1 | inconclusive [inhibitor, single point] | –
33 | COc1ccc(NC(=O)CSc2nc3sc(C)cc3c(=O)n2C)cc1 | inactive | –
34 | COc1ccc([C@@H]2CC(=O)[C@@H]3CN(S(=O)(=O)c4ccc(C)cc4)[C@H](c4ccccc4)C[C@@H]3N2S(=O)(=O)c2ccccc2)cc1 | inactive | –
35 | CN(C)c1ccc(NC(=S)c2ccccn2)cc1 | active: 4.61 µM | –
36 | O=C(N/N=C/c1ccco1)c1cc(-c2cccc(Br)c2)nc2ccccc12 | inconclusive [inhibitor, partial curve] | –
37 | Cc1ccc2cc(C#N)c(N3CCN(C(=O)c4cccs4)CC3)nc2c1 | inconclusive [inhibitor, single point] | –
38 | Brc1ccc2ncnc(NCc3cccnc3)c2c1 | inconclusive [inhibitor, full curve] | –
39 | CC(=O)Nc1cccc(C(=O)OC(C(=O)c2ccc(C)c(C)c2)c2ccccc2)c1 (stereo not drawn) | active: 16.4 µM | –
40 | Cc1cc2c3c(c1C)C1(C(=O)N3C(C)(C)CC2C)C(C#N)=C(N)Oc2n[nH]c(C)c21 (stereo not drawn) | inconclusive [inhibitor, single point] | –
41 | FC(F)(F)c1ccccc1-n1c(CN2CCCCC2)n[nH]c1=S | inactive | –
42 | CCC(C(=O)Nc1ccc([N+](=O)[O-])cn1)c1ccccc1 (stereo not drawn) | inactive | –
43 | COc1ccc(N2CC(c3nc(-c4ccccc4C)no3)CC2=O)cc1Cl (stereo not drawn) | inactive | –
44 | CC(C)CN(CC(C)C)c1nn[nH]n1 | inactive | –
45 | CCOC(=O)N1CCN(S(=O)(=O)c2ccc(C(=O)Nc3ccc4c(c3)C(=O)NC4=O)cc2)CC1 | inactive | –
46 | O=C1c2ccccc2C(Nc2ccc(S(=O)(=O)N3CCOCC3)cc2)N1Cc1ccco1 (stereo not drawn) | – | inconclusive: -34% [inhibitor]
47 | O=C(CSc1nc(-c2ccco2)cc(C(F)(F)F)n1)Nc1cccnc1 | inconclusive [inhibitor, single point] | –
48 | COc1ccccc1CNc1ncncc1-c1ccc(N(C)C)cc1 | inconclusive [inhibitor, single point] | –
49 | CC1CCCC/C1=N\NC(=S)Nc1cccnc1 (stereo not drawn) | inactive | –
50 | O=C(OCCCc1cc2ccccc2c(=O)o1)c1ccc2c(c1)OCO2 | inactive | –

Row | Compound | Potency | activity change, negative = growth inhibition
51 | CN(C)S(=O)(=O)c1cccc(NC(=O)CN2C(=O)NC3(CCc4ccccc4C3)C2=O)c1 (stereo not drawn) | inactive | –
52 | CC1=C(C(=O)NCc2ccco2)C2(CCC(C)CC2)OC1=O (stereo not drawn) | inconclusive [inhibitor, single point] | –
53 | COc1cccc(NC(=O)OCCN2CCN(Cc3ccccc3)CCC2=O)c1 | inactive | –
54 | N#Cc1c(/N=C/c2cc3ccccc3s2)sc2c1CCC2 | inconclusive [inhibitor, partial curve] | –
55 | Cc1ccc(-c2onc(C)c2C)cc1S(=O)(=O)N1CCc2ccccc21 | active: 13 µM | –
56 | COc1cccc(CC2(CO)CCCN(Cc3ccccc3-c3ccco3)C2)c1 (stereo not drawn) | inconclusive [inhibitor, partial curve] | –
57 | O=C1COc2cc(ccc2[N+](=O)[O-])Oc2ccc(cc2Cl)C(=O)CCCCO1 | inconclusive [inhibitor, partial curve, poor fit] | –
58 | COc1ccccc1CN(Cc1cc2cc3c(cc2[nH]c1=O)OCCO3)Cc1nnnn1Cc1ccco1 | active: 25.9 µM | –
59 | CC(C)c1ccc(/C=C2\SC(=O)N(CC(=O)NC3CCS(=O)(=O)C3)C2=O)cc1 (stereo not drawn) | active: 23.1 µM | –
60 | CC(C)(C)c1cc(C(=O)NNC(=O)Nc2cccc(Cl)c2)n(Cc2ccccc2)n1 | inconclusive [inhibitor, single point] | –
61 | Cc1ccc(CS(=O)(=O)Cc2ccc(C(=O)NCCCN3CC(C)CC(C)C3)o2)cc1 (stereo not drawn) | inactive | –
62 | O=C(CSc1nnc(CNc2ccccc2)o1)N1CCCc2ccccc21 | inactive | –
63 | COCCCNCCOCCOc1ccc(C)cc1[N+](=O)[O-] | inactive | –
64 | CCOC(=O)c1cc2cc(CC(=O)c3ccc(OCC)cc3O)ccc2o1 | inactive | –
65 | CN(C(=O)c1ccc(OC2CCN(CCc3ccccc3)CC2)cc1)C1CCCCC1 | inconclusive [inhibitor, single point] | –
66 | COCCn1c(SCC(=O)Nc2cc(OC)ccc2OC)nc2c(c1=O)SC(C)C2 (stereo not drawn) | inconclusive [inhibitor, single point] | –
67 | CN1CCN(c2ccc(-c3nc(-c4ccccc4)no3)cc2[N+](=O)[O-])CC1 | inconclusive [inhibitor, single point] | –
68 | CCOc1ccc(OCCSc2ccc(S(=O)(=O)N3CCN(C)CC3)cn2)cc1 | inconclusive [inhibitor, single point] | –
69 | Cc1ccc(S(=O)(=O)N(C)C)cc1NC(=O)CSc1nc2ncc(Cl)cc2[nH]1 | inconclusive [inhibitor, single point] | –
70 | Cc1cccc(CCNC(=O)CCc2c(C)nc3c(-c4ccc(F)cc4)c(C)nn3c2C)c1 | inconclusive [inhibitor, partial curve] | –
71 | COC(=O)c1ccc(NC(=O)C(c2ccccc2)N2Cc3ccccc3C2=O)cc1 (stereo not drawn) | inconclusive [inhibitor, single point] | –
72 | Cn1c(Cc2cccs2)nnc1SCC(=O)Nc1ccc(F)cc1F | inactive | –
73 | Cc1cc(C(=O)N/N=C/c2c3ccccc3cc3ccccc23)n[nH]1 | inconclusive [inhibitor, single point] | –

— PubChem BioAssay AID686979 (National Center for Advancing Translational Sciences (NCATS), 2013)
